Among all 5,400 compounds or so, about 190 (3.5%) showed an effect of 50% or more. This is one part of the list. Positions of bridges follow the written chain, without caps; N, C: chain ends. Non-standard residues stand in square brackets, D forms with d. Residues, ends and D or L forms follow the SMILES beside them. ξ: configuration not given here. ξThr(3R) = C[C@@H](O)C(N)C(=O)O
System: Vero-E6
Assay: primary screen, phospholipidosis by LipidTOX staining; higher = more effect of the substance
Settings: 10 µM
Method: To measure drug-induced PLD in Vero-E6 cells, we used the HCS LipidTOX Red Phospholipidosis Detection Reagent (Invitrogen, #H34351), which is non-toxic to cell growth and remains well retained after aldehyde fixation. In this setup, compounds (at 10 μM concentration) and controls (amiodarone: 10 μM concentration; DMSO: 0.1 v/v %) were added to clear-bottom, 384-well plates (PhenoPlate 384-well, black, optically clear flat bottom, tissue-culture treated, Revvity #6057302) using the Echo Liquid Handler (Labcyte).

Row | Structure (SMILES) | result_ITMP
1 | O=C(O)c1ccc(N[C@H]2O[C@H](CO)[C@@H](O)[C@H](O)[C@@H]2O)cc1 | -5.7%
2 | Clc1ccccc1CN1CCc2sccc2C1 | 5.84%
3 | O=C(O)/C=C(/CC(=O)O)C(=O)O | -1.87%
4 | CCC(=O)O[C@H](CC(=O)O)C[N+](C)(C)C | -1.2%
5 | COc1cc(Br)c(S(=O)(=O)Nc2ccc(Cl)c(O[C@@H]3CCN(C)C3)c2)cc1OC | 0.95%
6 | CCN(CC)CCOC(=O)C1(c2ccc([N+](=O)[O-])cc2)CCCC1 | 9.04%
7 | Ic1cc(-c2ccccc2)ncn1 | -2.32%
8 | Nc1ccc(O)c(C(=O)O)c1 | -0.32%
9 | N[C@@H]1[C@H]2CN(c3nc4c(cc3F)c(=O)c(C(=O)O)cn4-c3ccc(F)cc3F)C[C@@H]12 | 0.39%
10 | O=C(Nc1c(-c2cccs2)nc2ccccn12)c1ccc(Cl)cc1 | -0.29%
11 | NCC1CC(=O)N(Cc2ccccc2)C1 (stereo not drawn) | -5.56%
12 | CC(=O)N[C@@H](CC(=O)O)C(=O)N[C@@H](CCC(=O)O)C(=O)O (Ac-Asp-Glu-OH) | -0.28%
13 | Cc1cc(C(C)(C)CC(C)(C)C)ccc1OCCOCC[N+](C)(C)Cc1ccccc1 | -6.14%
14 | Cc1cc(NC(=O)C2=C(O)c3ccccc3S(=O)(=O)N2C)no1 | 1.26%
15 | Nc1nccc(-c2c(-c3ccc(F)cc3)ncn2C2CCCCC2)n1 | -1.28%
16 | O=C1c2ccccc2C(=O)c2ccccc21 | -4.71%
17 | c1cc(-c2sc(-c3ccncc3)c(-c3ccncc3)c2-c2ccncc2)ccn1 | -1.74%
18 | O=C(Nc1cc(-c2ccccc2)nn1-c1ccccc1)c1ccc([N+](=O)[O-])cc1 | 1.13%
19 | CO[C@@H]1[C@@H](O[C@@H]2O[C@H](C)[C@@H](O[C@H]3C[C@@](C)(O)[C@H](O)[C@H](C)O3)[C@H](N(C)C)[C@H]2O)[C@@H](CC=O)C[C@@H](C)[C@@H](O[C@H]2CC[C@H](N(C)C)[C@@H](C)O2)/C=C/C=C/C[C@H](C)OC(=O)C[C@H]1O | -7.34%
20 | CO[C@@]1(NC(=O)C2SC(=C(C(N)=O)C(=O)O)S2)C(=O)N2C(C(=O)O)=C(CSc3nnnn3C)CS[C@@H]21 (stereo partly drawn) | -3.07%
21 | CN(C)CCCN1c2ccccc2CCc2ccc(Cl)cc21 | 47.3%

Row | Structure (SMILES) | result_ITMP
22 | COC(=O)N1CCN(Cc2cccc(NC(=O)Nc3ccc(C)nc3)c2F)CC1 | -1.16%
23 | O=C1CCC(c2ccccc2)(C2CCN(Cc3ccc(I)cc3)CC2)C(=O)N1 (stereo not drawn) | 30.2%
24 | COCCN(C(=O)c1cc(OC)c(OC)c(OC)c1)c1nc(-c2ccccc2)cs1 | -0.65%
25 | CCCCCCCCCCCCCCCCCCOC[C@H](COP(=O)([O-])OCC[N+](C)(C)C)OC | 7.43%
26 | COC(=O)C1=C(C)NC(C)=C(C(=O)OC)C1c1ccccc1[N+](=O)[O-] | -3.4%
27 | CCCCCCCC(=O)N[C@H](CN1CCCC1)[C@H](O)c1ccc2c(c1)OCCO2 | 51.9%
28 | C[C@@H]1NC(=O)[C@@H]2CCCN2C(=O)[C@H](CC(N)=O)NC(=O)[C@@H]2CSSC[C@H](N)C(=O)N[C@H]3CSSC[C@H](NC1=O)C(=O)NC([C@@H](C)O)C(=O)NCC(=O)N[C@H](C(=O)N[C@@H](Cc1ccc(O)cc1)C(=O)O)CSSC[C@H](NC(=O)[C@H](Cc1ccc(O)cc1)NC(=O)[C@H](CCC(=O)O)NC3=O)C(=O)N2 (stereo partly drawn) (H-CCEYCCNPAC[ξThr(3R)]GCY-OH; disulfide 1-6, 2-10, 5-13) | -6.32%
29 | CN(C)c1nc(N)c(C(=O)Nc2cccnc2)nc1Cl | -1.56%
30 | N#Cc1ccc(NCCNCC(=O)N2CCC[C@H]2C#N)nc1 | -4.45%
31 | COc1cc(N2CCN(C)CC2)ccc1Nc1nccc(-c2cn(C)c3cnccc23)n1 | 12.4%
32 | COc1cc2c(cc1O)CC[C@@H]1[C@@H]2CC[C@]2(C)[C@@H](O)CC[C@@H]12 | 3.54%
33 | NC(=O)c1ncn([C@@H]2O[C@H](CO)[C@@H](O)[C@H]2O)c1N | -3.54%
34 | CC1=C(/C=C/C(C)=C/C=C/C(C)=C/C(=O)Nc2ccc(O)cc2)C(C)(C)CCC1 | -0.7%
35 | CCC(=O)O[C@H]1[C@H](O[C@@H]2[C@@H](C)[C@H](O[C@H]3C[C@@](C)(OC)[C@@H](O)[C@H](C)O3)[C@@H](C)C(=O)O[C@H](CC)[C@@](C)(O)[C@H](O)[C@@H](C)C(=O)[C@H](C)C[C@@]2(C)O)O[C@H](C)C[C@@H]1N(C)C | -2.03%
36 | Cc1ccc(Cl)c(OCC(O)CNC(C)(C)C)c1 (stereo not drawn) | 35.5%
37 | Cc1ccc(F)cc1C(=O)Nc1ccc(C(=O)N2Cc3cccn3Cc3ccccc32)c(Cl)c1 | 9.56%
38 | NC(=O)c1ccc(-c2nc(-c3ccc4c(c3)OCO4)c(-c3ccccn3)[nH]2)cc1 | 0.7%
39 | COc1ccc(CC2NCCc3c2[nH]c2ccc(C)cc32)c(Cl)c1OC (stereo not drawn) | 42.7%
40 | C[N+]12CCC(CC1)C(OC(=O)C(O)(c1ccccc1)c1ccccc1)C2 (stereo not drawn) | -3.37%
41 | C/C(=N\NC(=O)[C@@H]1C(=O)NC[C@H]1c1ccccc1)c1cccc(Br)c1 | 6.04%
42 | O=C(O)c1cc(O)c2c(c1)[C@H]([C@H]1c3cc(C(=O)O)cc(O)c3C(=O)c3c(O[C@@H]4O[C@H](CO)[C@@H](O)[C@H](O)[C@H]4O)cccc31)c1cccc(O[C@@H]3O[C@H](CO)[C@@H](O)[C@H](O)[C@H]3O)c1C2=O | 0.26%

Row | Structure (SMILES) | result_ITMP
43 | CC(=O)[C@H]1CC[C@H]2[C@@H]3CC[C@@H]4C[C@H](O)CC[C@]4(C)[C@H]3CC[C@]12C | -1.08%
44 | C[C@@H]1OC(O)[C@H](O)[C@H](O)[C@H]1O (stereo partly drawn) | -1.39%
45 | CC(=O)Oc1cc(C(C)C)c(OCCN(C)C)cc1C | 2.56%
46 | CCOc1c(N2CCOCC2)cnn(C)c1=O | -3.66%
47 | CC(c1cc2ccccc2s1)N(O)C(N)=O (stereo not drawn) | 3.44%
48 | CC1=C(C(=O)OC2CCCCC2)C(c2ccc([N+](=O)[O-])cc2)C2=C(CC(C)(C)CC2=O)N1 (stereo not drawn) | 4.04%
49 | C[C@@H]1C(=O)O[C@H]2C[C@@]34[C@H]5C[C@@H](C(C)(C)C)[C@]36[C@@H](OC(=O)[C@@H]6O)O[C@@]4(C(=O)O5)[C@]21O | -6.46%
50 | CC[N+](C)(CC)CC(=O)Nc1c(C)cccc1C | -1.87%
51 | O=C(O)C(Cc1ccccc1[N+](=O)[O-])=NNc1nc(-c2ccc(Cl)c(Cl)c2)cs1 (mixture of isomers) | -7.04%
52 | C[C@H](N)C(=O)NCC(=O)N[C@H]1CSSC[C@@H](C(=O)O)NC(=O)[C@H](CO)NC(=O)[C@H]([C@@H](C)O)NC(=O)[C@H](Cc2ccccc2)NC(=O)[C@H]([C@@H](C)O)NC(=O)[C@H](CCCCN)NC(=O)[C@H](Cc2c[nH]c3ccccc23)NC(=O)[C@H](Cc2ccccc2)NC(=O)[C@H](Cc2ccccc2)NC(=O)[C@H](CC(N)=O)NC(=O)[C@H](CCCCN)NC1=O | 0.28%
53 | OB1OCc2cc(Cl)ccc21 | 1.41%
54 | C[N+]1(C)C2CC(OC(=O)[C@@H](CO)c3ccccc3)CC1C1OC12 (stereo partly drawn) | -2.43%
55 | C[n+]1cccc(C(=O)[O-])c1 | -3.38%
56 | CCCCCCCCCCCCCCC[C@@H](O)[C@@H](N)CO | -0.49%
57 | COc1cc(C)c(/C=C/C(C)=C/C=C/C(C)=C/C(=O)O)c(C)c1C | 0.98%
58 | CCCCCCCCCCCCCCCCCC(=O)OCC(O)CO (stereo not drawn) | -2.54%
59 | CC(C)(F)C[C@H](N[C@@H](c1ccc(-c2ccc(S(C)(=O)=O)cc2)cc1)C(F)(F)F)C(=O)NC1(C#N)CC1 | 1.59%
60 | COc1cc(-n2c(S)nc3ccccc3c2=O)c(Cl)cc1Cl | -8.31%
61 | C[C@@]12N[C@@H](Cc3ccccc31)c1ccccc12 | 8.79%
62 | CC(CC(C(N)=O)(c1ccccc1)c1ccccc1)N(C)C (stereo not drawn) | -2.3%
63 | NS(=O)(=O)c1cc2c(cc1Cl)NCNS2(=O)=O | -2.21%

Row | Structure (SMILES) | result_ITMP
64 | O=C1C(=O)N(Cc2ccc(Cl)c(Cl)c2)c2ccccc21 | -3.12%
65 | O=C(NC1CCOCC1)c1ccc(-c2cc(-c3c[nH]nc3-c3ccccn3)ccn2)cc1 | -6.7%
66 | C[N+]1(C)CCC(=C(c2ccccc2)c2ccccc2)CC1 | -10.1%
67 | COc1ccc(-c2noc(CC(=O)O)c2-c2ccc(OC)cc2)cc1 | -3.22%
68 | CN(C)CCc1c[nH]c2ccc(C[C@H]3COC(=O)N3)cc12 | 5.78%
69 | O=C1c2cccc(O)c2C(=O)c2c(O)cc(CO)cc21 | -4.58%
70 | CN(C)CCC=C1c2ccccc2C=Cc2ccccc21 | 71.1%
71 | CC(=O)N[C@@H](CSSC[C@H](NC(C)=O)C(=O)O)C(=O)O | -11.7%
72 | CSc1ccc(C(=O)c2nc(O)[nH]c2C)cc1 | -1.45%
73 | NCCCCN(Cc1nc2ccccc2[nH]1)[C@H]1CCCc2cccnc21 | 1.31%
74 | C/C(=N\NC(=S)N1CCC1)c1ccccn1 | -1.79%
75 | Nc1ccc(C(=O)Oc2ccccc2)c(O)c1 | -2.08%
76 | O=C(Nc1ccc2[nH]ccc2c1)c1ccccc1 | -1.72%
77 | Oc1ccc(O)cc1 | -3.83%
78 | O=C(/C=C/c1ccc2ccc(C(F)(F)F)cc2n1)c1ccncc1 | -2.62%
79 | CN1CCN(c2cccc(Nc3nc4c(-c5ccc(S(C)(=O)=O)cc5)cccn4n3)c2)CC1 | 28.1%
80 | COc1cc2nc(N3CCN(C(=O)C4CCCO4)CC3)nc(N)c2cc1OC (stereo not drawn) | -1.86%
81 | Nc1ncnc2c1c(-c1ccc(Oc3ccccc3)cc1)nn2C1CCCC1 | -1.17%
